Test results published in ChEMBL document CHEMBL1156829.
“And” between values parts separate entries of the source, which are not always exact repeats. Identical values can stand only once. Over roughly 5,400 compounds, “IFI” has its median near 2; the highest 2% begin near 22. The list shows a part of the results.

experiment: NOVARTIS: Inhibition Frequency Index (IFI) - the number of HTS assays where a compound showed > 50% inhibition/induction, expressed as a percentage of the number of assays in which the compound was tested.; assay type: functional

| Compound | IFI |
| --- | --- |
| COc1cc(-c2cc(C(F)(F)F)n3ncc(C(=O)Nc4cc(C)ccc4O)c3n2)cc(OC)c1OC | 0% |
| CC(NCc1ccccc1)c1cc(Cl)ccc1O (stereo not drawn) | 0% |
| N#Cc1ccc(CNC(=S)Nc2cc(Cl)ccc2Cl)cc1 | 3.12% |
| Cc1ccccc1Oc1ccc(S(=O)(=O)NC(CC(C)C)C(=O)O)cc1 (stereo not drawn) | 0% |
| Cc1nc(NN=Cc2c(O)ccc3ccccc23)cc(N2CCCCC2)n1 | 7.69% |
| CC(=O)Nc1ccc2c(c1)C(=O)N(C(C(=O)NCc1ccccc1)C1CCCCC1)[C@@H](Cc1ccc(O)cc1)C(=O)N2 (stereo partly drawn) | 2.44% |
| O=C(Nc1ccc(-c2nnc(-c3ccc(NC(=O)c4ccccc4[N+](=O)[O-])cc3)o2)cc1)c1ccccc1[N+](=O)[O-] | 0% |
| CC1(C)CC(=O)c2cc(-c3ccc(Br)cc3)n(-c3ccccc3F)c2C1 | 3.12% |
| Clc1cccc(-c2cn3ccnc3c(N3CCN(c4ccncc4)CC3)n2)c1 | 4.4% |
| Cc1ccc(NC2=C(c3ccc(C(F)(F)F)cc3)C(=O)c3ccccc32)cc1F | 0% |
| Clc1ccccc1Nc1nc2nonc2nc1Nc1cccc(Br)c1 | 15.4% |
| O=S(=O)(NCCNc1ncnc2scc(-c3ccccc3)c12)c1ccc(Cl)c(Cl)c1 | 1.67% |
| O=C(Nc1ccc(F)c(F)c1)c1ccccc1[N+](=O)[O-] | 0% |
| CC1=C(C(=O)OC(C)C)C(c2ccc(Br)cc2)C2=C(CC(c3ccc(Cl)cc3)CC2=O)N1 (stereo not drawn) | 3.61% |
| CCOCCCN(C(=O)C(F)(F)F)C(C(=O)NC1CCCCC1)c1ccncc1 (stereo not drawn) | 0% |
| Cc1ccn2c(NC(C)(C)CC(C)(C)C)c(-c3ccccc3OC(=O)CCC3CCCC3)nc2c1 | 2.8% |
| NCCNC(=O)COC(c1cccnc1)c1ccccc1Cl (stereo not drawn) | 0.971% |
| COc1ccc(/C=C(/C#N)C(=O)Nc2cccc3ccccc23)cc1 | 0% |
| CCOc1ccc(CCN2C(=S)N(c3cccc(C(F)(F)F)c3)C(=O)C2CC(=O)Nc2ccc(C(=O)OC)cc2)cc1OCC (stereo not drawn) | 3.26% |
| Brc1cc(Br)c2c(-c3ccccc3)n(-c3ccccc3)nc(-c3ccccc3)c1-2 | 0% |
| CCc1ccc(C(=O)N(C)CCCNc2ccnc3cc(Cl)ccc23)cc1 | 7.34% |
| Cc1ccc(C[n+]2cc(-c3ccc(C)cc3)n3c2CCC3)cc1 | 4.88% |
| O=C(C[n+]1cc(-c2ccc(Cl)cc2)n2c1CCC2)c1ccc(C2CCCCC2)cc1 | 27.5% |
| O=C(Nc1cc(C(F)(F)F)ccc1OCc1ccccc1)c1ccccc1O | 0% |
| CCOC(=O)c1cnc2c(OC)cccc2c1Nc1ccc(OC)c(OC)c1 | 0% |

| Compound | IFI |
| --- | --- |
| CCc1cc(C(=O)N2CCC[C@@H]3CN(C(=O)c4ccc(F)cc4)CC[C@@H]32)n(C)n1 | 0.98% |
| N=c1c2c(n(Cc3ccc(Cl)c(Cl)c3)c3c1CCC3)CCCC2 | 14.3% |
| c1ccc2cc3c(N4CCN(CCCN5CCN(c6ccnc7cc8ccccc8cc67)CC5)CC4)ccnc3cc2c1 | 7.14% |
| CCOC(=O)C1(CC)CC(C)(C(=O)C[n+]2cccc(Br)c2)OC1=O (stereo not drawn) | 0% |
| CCN1CCN(Cc2c(O)ccc3c(=O)c(Oc4cccc(C)c4)c(C(F)(F)F)oc23)CC1 | 1.18% |
| COc1ccc2nc(C)cc(Nc3ccc(Oc4ccc5ccccc5c4)c(Cl)c3)c2c1 | 7.14% |
| COc1cc(/C=C(\C#N)c2nc3ccccc3[nH]2)ccc1OCc1ccccc1Cl | 0% |
| CCN1CCC(N2C[C@H](n3cc(C(=O)OC)nn3)C[C@H]2C(=O)NCc2cccc(C(F)(F)F)c2)CC1 | 0.99% |
| CCOc1cc2c(cc1OCC)C(c1ccc(O)c(Cl)c1)NCC2 (stereo not drawn) | 0% |
| COc1ccc(NC(=O)CCCCCn2c(SCC(=O)c3ccccc3)nc3ccsc3c2=O)cc1 | 0% |
| COc1ccc2nc(C)cc(Nc3ccc(Oc4ccc(Br)c5ccccc45)c(Cl)c3)c2c1 | 13.6% |
| C=CC1CN2CCC1CC2C(O)c1ccnc2ccc(OC)cc12 (stereo not drawn) | 1.82% |
| O=c1c2c([nH]c3cc(Cl)ccc13)CCCC2 | 0% |
| CC(C)CCNCC(O)Cn1c2ccc(Br)cc2c2cc(Br)ccc21 (stereo not drawn) | 10.1% |
| CCCOC(=O)C1=C(C)NC2=C(C(=O)CC(c3ccc(OC)c(OC)c3)C2)C1c1ccc(Cl)c(Cl)c1 (stereo not drawn) | 4.71% |
| COC(=O)C1=C(O)/C(=C\c2cc(C)n(-c3ccccc3F)c2C)N=C1C | 0% |
| C#CCNC(=O)c1ccc(OC2CCN(CC(c3ccccc3)c3ccccc3)CC2)c(OC)c1 | 2.74% |
| O=C(NCCCNC(=O)Nc1cccc(C2=NCCN2)c1)Nc1cccc(C2=NCCN2)c1 | 0% |
| CN(CCCNc1ccnc2cc(Cl)ccc12)S(=O)(=O)c1cccc2cccnc12 | 6.48% |
| CCCCNC(=O)CSCc1cnn(-c2ccccc2)c1-n1cccc1 | 2.44% |
| CCOc1ccc2c(c1)c1nnc(-c3ccc4c(c3)OCO4)c-1cn2Cc1ccc(Cl)cc1 | 5.88% |
| COc1ccc(Br)cc1CNC(=O)CCCN1C(=O)COc2ccc(C)cc21 | 0% |
| O=C(NCCCCNC(=O)Nc1cccc(C2=NCCN2)c1)Nc1cccc(C2=NCCN2)c1 | 0.901% |
| CCCCCCN(C(=O)COCc1ccccc1)C(CC)c1nc2ccccc2c(=O)n1-c1cccc(Cl)c1 (stereo not drawn) | 0.943% |
| CC(=O)N1CCc2cc(NC3CCN(Cc4ccccc4)CC3)ccc21 | 1.49% |

| Compound | IFI |
| --- | --- |
| CCOC(=O)c1cnn(-c2ccnc3cc(Cl)ccc23)c1CNC(C)c1ccco1 (stereo not drawn) | 2.59% |
| Cc1ccc(NC(C)c2nc3ccccc3c(=O)n2CCOC2CCCCO2)cc1C (stereo not drawn) | 1.91% |
| O=C(Cn1ccc(=NCc2ccccc2)cc1)c1cccc(Br)c1 | 0% |
| Cc1ccc(/C=C/c2ccc3ccccc3[n+]2C)cc1 | 5.98% |
| Cc1cc(C)[n+](C)n1CC(O)Cn1c2ccccc2c2ccccc21 (stereo not drawn) | 1.03% |
| COC(=O)c1ccc(C2C3=C(O)CC(c4ccco4)CC3=Nc3ccccc3N2C(=O)c2ccccc2)cc1 (stereo not drawn) | 4.08% and 2.41% |
| C[n+]1cccc(/C=C2/c3ccccc3-c3ncccc32)c1 | 0% |
| Cc1ccc(-c2nnc(NCc3ccccc3)c3ccccc23)cc1S(=O)(=O)NCC1CCCO1 (stereo not drawn) | 2.94% |
| c1ccc(Nc2ccnc(Nc3ccccc3)n2)cc1 | 5.2% |
| CCN(CC)CCNC(=O)C1c2ccccc2C(=O)N(Cc2ccc(F)cc2)C1c1ccc(OC)cc1 (stereo not drawn) | 0% |
| CCOC(=O)C1=C(C)NC2=C(C(=O)CC(c3ccc(OC)c(OC)c3)C2)C1c1ccccc1Cl (stereo not drawn) | 3.53% |
| CCOC(=O)c1cc(-c2ccc(OC)cc2)n(CCC(=O)NCc2ccc(OC)cc2)c1C | 0% |
| O=C(N1CCCCC1)n1nnc2ccccc21 | 3.33% |
| COc1ccccc1C(c1nnnn1Cc1ccc(F)cc1)N1CCN(C)CC1 (stereo not drawn) | 0% |
| Cc1ccc2nc(-c3ccc(O)cc3)oc2c1 | 7.14% |
| COc1ccc(CCN2CCC(Nc3nc4ccccc4n3Cc3ccc(F)cc3)CC2)cc1 | 2.37% |
| COc1cccc(CNc2cc(C(=O)NCCNC(C)=O)cc(S(=O)(=O)N(C)C)c2)c1OC | 6.02% |
| CC(C)C(=O)N(C)CCCNc1ccnc2cc(Cl)ccc12 | 2.8% |
| CC(=O)Nc1nc(-c2ccc(F)cc2)cs1 | 0% |
| N#Cc1c(N)nc(SCC(=O)c2ccc([N+](=O)[O-])cc2)c(C#N)c1-c1ccccc1 | 2.35% |
| O=C1N(c2ccccc2)C[C@@H]2C[C@@H](c3ccc(C#CCCO)cc3)N3CCC[C@@]123 | 0% |
| COc1cccc2c1C(=O)c1c(O)c3c(c(O)c1C2=O)C[C@](O)(C(C)=O)C[C@@H]3O[C@H]1C[C@@H](N)[C@H](O)[C@H](C)O1 | 19.7% |
| CCCCNc1nc(NC(C)(C)C)nc(NC(C)(C)C)n1 | 0% |
| Cc1ccc2c(c1)-c1c(ssc1=S)C(C)(C)N2C(=O)c1ccco1 | 0.746% |
| COCCNC(=O)c1ccc(NCCc2ccc(Cl)cc2)c(S(=O)(=O)Nc2cccc(C(F)(F)F)c2)c1 | 0% |

| Compound | IFI |
| --- | --- |
| C(=NNc1nc2ccccc2[nH]1)c1c[nH]c2ccccc12 | 13.1% |
| N=c1n(Cc2ccccc2)c2ccccc2n1CC(O)c1ccc(Cl)c(Cl)c1 (stereo not drawn) | 14.3% |
| Oc1ccc(Br)c(C(Nc2ccccn2)c2ccc3cccnc3c2O)c1 (stereo not drawn) | 12.5% |
| CC(C=NNC(N)=S)=NNC(N)=S | 21.8% |
| CCOC(=O)N1CCN(C(=O)CSc2nc(-c3ccc(Cl)cc3)cn2-c2ccc(C)cc2)CC1 | 0% |
| CCOC(=O)C1=C(C)N/C(=C\c2cc(C)n(-c3cccc(Br)c3)c2C)C1=O | 0% |
| O=C1CC(c2nc3ccccc3n2CCCOc2ccccc2)CN1c1ccc(F)cc1 (stereo not drawn) | 0% |
| O=C1c2ccccc2-n2c1nc1ccccc1c2=O | 2.19% |
| CCCOC(=O)C1=C(C)NC2=C(C(=O)CC(c3ccc(OC)c(OC)c3)C2)C1c1ccc([N+](=O)[O-])cc1 (stereo not drawn) | 2.38% |
| NC(=O)c1ccc(-n2nnnc2SCc2ccc(Cl)cc2)cc1 | 1.59% |
| Cc1ccc(NC(=O)CCCCC(=O)Nc2ccc(C)c(Br)c2)cc1Br | 0% |
| Cc1[nH]c2ccccc2c1/C=C/c1cc[n+](C)cc1 | 4.44% |
| CCC(C)NC(=O)C1CSC(c2cccc(F)c2)N1C(=O)c1cc(OC)c(OC)c(OC)c1 (stereo not drawn) | 1.92% |
| Oc1ccc(Nc2nc(N3CCCC3)c3ccccc3n2)cc1 | 4.54% |
| C=CCNC(=O)c1ccc2c(c1)N=CN(CCOc1ccccc1)C2 | 2.47% |
| Cc1oc2c(c1C(=O)NCC1CCCO1)C(=O)c1ccccc1C2=O (stereo not drawn) | 17% |
| COc1ccc(C(=O)C[N+]2=C(C)c3ccc(C)n3CC2)cc1 | 0% |
| CC(NC(=O)C(=O)N1CCCCC1)C(c1cccs1)N1CCOCC1 (stereo not drawn) | 1.41% |
| CCCCSc1ncnc2c1c(-c1ccccc1)cn2-c1cccc(F)c1 | 0% |
| COc1cc(C(=O)NCCc2cc3ccccc3[nH]2)ccc1OC1CCN(CC(c2ccccc2)c2ccccc2)CC1 | 5.56% |
| CCOc1cc(C2CC(=O)NC3=C2C(=O)CC(C)(C)C3)ccc1OC(C)C (stereo not drawn) | 0% |
| OC(Cn1cnc(-c2ccccc2)c1-c1ccccc1)Cn1c2ccc(Br)cc2c2cc(Br)ccc21 (stereo not drawn) | 0.719% |
| Cc1ccn2c(NC(C)(C)CC(C)(C)C)c(-c3ccccc3OC(=O)c3ccc(C(F)(F)F)cc3)nc2c1 | 7.02% |
